Source: PubChem BioAssay AID1476 (National Center for Advancing Translational Sciences (NCATS), 2009)
Where “and” joins values, the source holds several entries; their conditions need not be identical. Equal entries are not always repeated. Hit rate of the full screen: of about 200,000 compounds, about 4,500 (2.2%) were called active. Inconclusive means that the source gave no clear call. Such entries were picked first, then a sample of the others. Calls follow the shape of the dose curve; as a rule, active = well fitted inhibition curve with a large enough effect; inconclusive = small, poorly fitted or top-dose-only effect, or effect the other way; inactive = flat fitted curve, though single readings scatter. Potencies beside an inconclusive call are fits to weak or partial responses and may not hold up.
Also: nearly all actives have a fitted effect of over 40% in size.
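For max response, negative = inhibition in this document: plate controls were enzyme without inhibitor for no effect and buffer without enzyme for full effect.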
Potency is read from the fitted curve at half-maximal effect; tags tell the direction and shape of the fitted curve.

What follows are compounds tested against Cruzipain (Trypanosoma cruzi) (UniProt P25779) (assay: qHTS Assay for Promiscuous and Specific Inhibitors of Cruzain (without detergent)). Conditions: purified cruzain, Z-FR-AMC fluorescence, no detergent.
Sequence of UniProt P25779 (P25779 whole entry, looked up): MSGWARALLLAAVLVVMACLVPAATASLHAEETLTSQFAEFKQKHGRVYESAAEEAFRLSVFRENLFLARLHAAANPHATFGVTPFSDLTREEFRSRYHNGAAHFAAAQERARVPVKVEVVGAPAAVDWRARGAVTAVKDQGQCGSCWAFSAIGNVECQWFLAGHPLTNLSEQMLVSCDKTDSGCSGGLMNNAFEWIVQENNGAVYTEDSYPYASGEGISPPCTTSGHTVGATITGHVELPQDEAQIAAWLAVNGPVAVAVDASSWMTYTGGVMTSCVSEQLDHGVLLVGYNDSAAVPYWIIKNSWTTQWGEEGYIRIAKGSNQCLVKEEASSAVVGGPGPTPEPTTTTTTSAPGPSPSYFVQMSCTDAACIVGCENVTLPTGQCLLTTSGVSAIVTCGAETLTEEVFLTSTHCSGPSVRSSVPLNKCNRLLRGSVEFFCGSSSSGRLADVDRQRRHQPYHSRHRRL
In short: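 Detergent-free condition (0.00005% Triton X-100) in acetate buffer pH 5.5 with DTT. 1.5 nM enzyme and compound were pre-mixed 15 min, then 2 uM Z-FR-AMC substrate added; reaction progress from fluorescence change between first and third reads (60 s).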
In the case of `CC(C)c1ccc(N2C(=O)N(Cc3cccc([N+](=O)[O-])c3)c3ccccc3S2(=O)=O)cc1`, the Potency is reported as inconclusive: 39.8 µM [inhibitor, single point]. `CCOc1ccc(NC(=O)[C@@H](c2ccccc2)N2Cc3ccccc3C2=O)cc1` was tested, and the max response, negative = inhibition was inactive: -2.33%. For `CCOc1cc(/C=N/NC(N)=O)cc(Br)c1OCc1ccccc1F`, the Potency was inconclusive: 20 µM [inhibitor, single point]. In the case of `CCOc1ccc(CCNCc2c(C(=O)O)c(C)n(Cc3ccccc3F)c2C)cc1`, the max response, negative = inhibition is reported as inactive: 3.04%. With `O=C(c1nn2c(C(F)(F)F)cc(-c3cccs3)nc2c1Br)N1CCCc2ccccc21` the Potency was inconclusive: 31.6 µM [inhibitor, single point]. `COc1cc2c(C(=O)N3CCN(c4cccc(Cl)c4)CC3)cn(CC(C)C)c(=O)c2cc1OC` was tested, and the Potency was inconclusive: 25.1 µM [activator, partial curve]. In the case of `COCCNC(=O)C1(CC(C)C)C=CCN1C(=O)c1ccccc1` (centres undefined), the max response, negative = inhibition is reported as inactive: -2.27%. With `COc1cc(C(=O)N2CCN(c3cccc(C)c3C)CC2)cc(OC)c1OC` the Potency was inconclusive: 39.8 µM [activator, single point]. With `O=c1/c(=C/c2cccc3ccccc23)sc2ncnn12` the Potency was inconclusive: 25.1 µM [activator, partial curve]. `CC(C)N1CC2=C(OC(N)=C(C#N)C2c2cccnc2)/C(=C/c2cccnc2)C1` (centres undefined) was tested, and the Potency was inconclusive: 6.31 µM [inhibitor, single point]. `CCc1ccccc1NC(=O)CCCn1c(=O)c2cccn2c2ccccc21` was tested, and the max response, negative = inhibition was inactive: -27.2%. In the case of `CNC(=O)CSc1nnc(-c2ccc(S(=O)(=O)N3CCCC3)cc2)n1-c1cccc(C)c1C`, the Potency is reported as inconclusive: 31.6 µM [activator, single point]. With `O=C(CSCc1ccc(Cl)cc1)NCC1CCCO1` (centres undefined) the max response, negative = inhibition was inactive: 0.979%. In the case of `CCc1cccc(-n2c(=O)c3cccnc3n2CC(=O)Nc2ccc(OC)c(Cl)c2)c1`, the Potency is reported as active: 25.1 µM. With `Cc1nn(-c2ccccc2)c(N2CCCC2)c1/C=N/NC(=O)c1cc(-c2ccccc2)nc2ccccc12` the Potency was active: 3.98 µM. For `CC(=O)c1ccc(NC(=O)c2ccc3nc(-c4ccco4)c(-c4ccco4)nc3c2)cc1`, the Potency was inconclusive: 3.98 µM [inhibitor, partial curve, poor fit]. `O=C(NCc1ccco1)C1c2ccccc2Oc2ccccc21` was tested, and the Potency was inconclusive: 31.6 µM [inhibitor, single point]. For `Cn1c(C(=O)NCCCN2CCOCC2)cc2c(=O)n(C)c3ccccc3c21`, the max response, negative = inhibition was inactive: 0.409%. In the case of `c1ccc(CSc2ncnc3c2sc2nc(N4CCOCC4)c4c(c23)CCCC4)cc1`, the Potency is reported as active: 3.16 µM. In the case of `COc1cccc(NC(=S)Nc2cccnc2)c1`, the max response, negative = inhibition is reported as inactive: 12.9%. In the case of `N#Cc1c(N2CCN(C(=O)c3ccccc3)CC2)nc(-c2ccccc2)c2c1CCCC2`, the Potency is reported as inconclusive: 39.8 µM [inhibitor, single point]. With `Cc1cccc(CNC(=O)c2cc3cc(S(=O)(=O)N4CCCCC4)ccc3n2C)c1` the max response, negative = inhibition was inactive: -7.98%. With `COC(=O)[C@@]1(Cc2ccc(OC)cc2)[C@H]2c3cc(C(=O)N4CCCC4)n(Cc4cc(F)c(F)c(F)c4)c3C[C@H]2CN1C(=O)c1ccccc1` the Potency was inconclusive: 31.6 µM [activator, single point]. For `O=C1CCC(C(=O)OCC(=O)N2N=C3/C(=C/c4ccccc4)CCCC3C2c2ccccc2)N1` (centres undefined), the Potency was inconclusive: 31.6 µM [activator, single point]. With `CCc1nn(C(C)C(=O)NC(C)CCc2ccco2)c(=O)c2cc3occc3n12` (centres undefined) the max response, negative = inhibition was inactive: -4.38%. `C=C(C)CSc1nc(N)c2c3c(sc2n1)CCC3` was tested, and the Potency was inconclusive: 31.6 µM [inhibitor, single point]. `COc1ccc(C(=O)c2cn(Cc3ccccc3F)c3cc4c(cc3c2=O)OCCO4)cc1OC` was tested, and the Potency was inconclusive: 39.8 µM [activator, single point]. For `C#CCn1c(=NC(=O)c2ccc(S(=O)(=O)N3CCCc4ccccc43)cc2)sc2cc(S(N)(=O)=O)ccc21`, the Potency was active: 7.94 µM. With `CCn1c2ccccc2c2cc(NC(=O)c3cccc(OC)c3OC)ccc21` the Potency was inconclusive: 25.1 µM [inhibitor, single point]. With `O=C(/C=C/C(=O)Oc1ccccc1C(=O)O)Oc1ccccc1C(=O)O` the max response, negative = inhibition was inactive: -1.17%. `O=C1CC(N2CCCCCC2)C(=O)N1c1ccc2c(c1)OCO2` (centres undefined) was tested, and the max response, negative = inhibition was inactive: 9.28%. For `CCOC(=O)N1CCC(NC(=O)CCC(=O)N2CCOc3ccc(C)cc32)CC1`, the max response, negative = inhibition was inactive: -2.22%. For `COc1ccccc1/C=C/c1nc(C#N)c(NC2CCCCC2)o1`, the max response, negative = inhibition was inactive: -29.6%. For `CCOC(=O)c1cc2n(c1/N=C/N(C)C)-c1ccccc1C2=O`, the Potency was inconclusive: 39.8 µM [activator, single point]. `COc1ccc(N(CC(=O)Nc2cccc(C)c2)S(=O)(=O)c2c(C)n[nH]c2C)cc1` was tested, and the Potency was inconclusive: 39.8 µM [activator, single point]. With `CC(=O)Nc1ccc(NC(=O)c2sc3nc4c(c(-c5ccc(C)cc5)c3c2N)CCC4)cc1` the Potency was inconclusive: 25.1 µM [activator, partial curve]. `Cc1cc(C)n2nc(SCc3nnc(SCc4ccccc4C)s3)nc2n1` was tested, and the Potency was inconclusive: 39.8 µM [activator, single point]. With `COc1ccc(S(=O)(=O)N2Cc3ccccc3CC2C(=O)Nc2cc(Cl)ccc2Cl)cc1` (centres undefined) the Potency was inconclusive: 31.6 µM [inhibitor, single point]. With `Cc1cc(/C=C(/C#N)c2nc3ccccc3[nH]2)c(C)n1-c1cccc([N+](=O)[O-])c1` the Potency was inconclusive: 39.8 µM [inhibitor, single point]. `CCOCN(C(=O)Cn1c(COC)nc2ccccc21)c1c(C)cccc1CC` was tested, and the Potency was inconclusive: 25.1 µM [activator, single point] and inconclusive: 39.8 µM [activator, single point]. In the case of `O=C(/C=C\Nc1ccccn1)c1ccc(Cl)cc1`, the Potency is reported as inconclusive: 31.6 µM [inhibitor, single point]. `COCCCNC(=O)c1cccn2c(=O)c3cc4ccccc4cc3nc12` was tested, and the Potency was inconclusive: 31.6 µM [activator, single point]. With `Cn1c(/C(C#N)=C/c2ccccc2Br)nc2ccccc21` the max response, negative = inhibition was inactive: -13.9%. In the case of `Cn1c(SCC(=O)N/N=C/C=C/c2ccccc2[N+](=O)[O-])nc2ccccc21`, the Potency is reported as inconclusive: 31.6 µM [inhibitor, single point]. With `Cc1c(NC(=O)CSc2nccn2C)c(=O)n(-c2ccccc2)n1C` the max response, negative = inhibition was inactive: 4.3%. With `Cn1c(=O)c2sccc2n2c(CCCC(=O)Nc3ccc(Oc4ccccc4)cc3)nnc12` the Potency was inconclusive: 39.8 µM [activator, single point]. In the case of `CCC(C)(C)NC(=O)C(c1cccn1C)N(C(=O)Cn1nnc2ccccc21)c1ccccc1OC` (centres undefined), the Potency is reported as inconclusive: 31.6 µM [activator, single point]. In the case of `CCC(C)c1ccccc1NC(=O)COC(=O)c1ccc2c(c1)S(=O)(=O)c1ccccc1C2=O` (centres undefined), the max response, negative = inhibition is reported as inactive: 3.71%. For `O=C(NNc1c2ccccc2nc2ccccc12)c1ccccc1O`, the Potency was inconclusive: 25.1 µM [inhibitor, single point]. In the case of `CCOc1ccc(OCC(=O)Nc2ccc(S(=O)(=O)Nc3cc(C)on3)cc2)cc1`, the max response, negative = inhibition is reported as inactive: -12.8%. `O=C(Nc1cccc(-c2cn3cccnc3n2)c1)c1ccc(Br)o1` was tested, and the Potency was inconclusive: 25.1 µM [activator, partial curve]. For `Cc1ccccc1CCNC(=O)c1ccc(Cn2c(=O)c3cccn3c3cccnc32)cc1`, the max response, negative = inhibition was inactive: -0.725%. For `COc1ccc(N2CCN(C(=O)c3cc4c(=O)n(Cc5ccco5)ccc4nc3C)CC2)cc1`, the Potency was inconclusive: 31.6 µM [activator, single point]. In the case of `COC(=O)c1ccc(CSc2nnc(NC(=O)c3cc4c(s3)CCCC4)s2)cc1`, the Potency is reported as active: 6.31 µM. In the case of `CCC(=O)N1CCc2cc(Br)cc(S(=O)(=O)Nc3ccccc3C(=O)OC)c21`, the max response, negative = inhibition is reported as inactive: -4.18%. With `Nn1c(SCC(=O)NC2CCCCC2)nnc1-c1ccc(Cl)cc1` the max response, negative = inhibition was inactive: -0.836%. For `O=C(NCc1ccccc1Cl)c1ccccc1NC(=O)c1nsc2ccccc12`, the max response, negative = inhibition was inactive: 4.13%. `CO[C@@H]1/C=C\O[C@]2(C)Oc3c(C)c(O)c4c(O)c(cc(O)c4c3C2=O)NC(=O)/C(C)=C\C=C/[C@H](C)[C@@H](O)[C@H](C)[C@H](O)C(C)[C@H](OC(C)=O)[C@@H]1C` (some centres undefined) was tested, and the Potency was inconclusive: 3.98 µM [activator, single point]. With `C/C(CC(=O)Nc1ccccc1-c1ccccc1)=N\NC(=O)COc1ccc(C)cc1Br` the Potency was inconclusive: 39.8 µM [activator, single point]. For `COc1ccc(-c2nc(C(=O)Nc3cccc(C(C)=O)c3)nn2-c2ccccc2Cl)cc1`, the Potency was inconclusive: 31.6 µM [inhibitor, single point]. In the case of `COCCNC(=O)c1ccc(-n2c(SCc3cc(F)ccc3F)nc3ccccc3c2=O)cc1`, the Potency is reported as inconclusive: 39.8 µM [activator, single point]. `CCCCCn1c(CCCNC(=O)c2ccc(Cl)cc2)nc2ccccc21` was tested, and the Potency was inconclusive: 39.8 µM [activator, single point]. In the case of `COc1ccc(CNCc2cccc(Cl)c2)cc1`, the Potency is reported as inconclusive: 3.16 µM [activator, single point]. `Cc1ccc(C)c(N2CCN(S(=O)(=O)c3c(C(=O)N4CCC(C)CC4)c(C)n(C)c3C)CC2)c1` was tested, and the Potency was inconclusive: 31.6 µM [activator, partial curve].
